Data taken from PubChem BioAssay AID488969 (Vanderbilt High Throughput Screening Facility, 2010).
The full ranking holds about 110,000 compounds; the median of “z-score” is about -0.1, and the highest 2% start at about 2. Some of the results follow.

Target: Metabotropic glutamate receptor 8 (Rattus norvegicus) (UniProt P70579)
Assay: mGluR8 Gi/Go-coupled signaling modulation – cell-based, rat, thallium flux, HTS, primary screen (AID 488969)
Conditions: HEK293 rat mGluR8, GIRK (G protein-gated inwardly rectifying potassium channel) thallium flux, FluoZin2; at 10 µM; stronger effect = higher value; submaximal glutamate (EC20) added with thallium

Sequence of UniProt P70579 (P70579 whole entry, looked up): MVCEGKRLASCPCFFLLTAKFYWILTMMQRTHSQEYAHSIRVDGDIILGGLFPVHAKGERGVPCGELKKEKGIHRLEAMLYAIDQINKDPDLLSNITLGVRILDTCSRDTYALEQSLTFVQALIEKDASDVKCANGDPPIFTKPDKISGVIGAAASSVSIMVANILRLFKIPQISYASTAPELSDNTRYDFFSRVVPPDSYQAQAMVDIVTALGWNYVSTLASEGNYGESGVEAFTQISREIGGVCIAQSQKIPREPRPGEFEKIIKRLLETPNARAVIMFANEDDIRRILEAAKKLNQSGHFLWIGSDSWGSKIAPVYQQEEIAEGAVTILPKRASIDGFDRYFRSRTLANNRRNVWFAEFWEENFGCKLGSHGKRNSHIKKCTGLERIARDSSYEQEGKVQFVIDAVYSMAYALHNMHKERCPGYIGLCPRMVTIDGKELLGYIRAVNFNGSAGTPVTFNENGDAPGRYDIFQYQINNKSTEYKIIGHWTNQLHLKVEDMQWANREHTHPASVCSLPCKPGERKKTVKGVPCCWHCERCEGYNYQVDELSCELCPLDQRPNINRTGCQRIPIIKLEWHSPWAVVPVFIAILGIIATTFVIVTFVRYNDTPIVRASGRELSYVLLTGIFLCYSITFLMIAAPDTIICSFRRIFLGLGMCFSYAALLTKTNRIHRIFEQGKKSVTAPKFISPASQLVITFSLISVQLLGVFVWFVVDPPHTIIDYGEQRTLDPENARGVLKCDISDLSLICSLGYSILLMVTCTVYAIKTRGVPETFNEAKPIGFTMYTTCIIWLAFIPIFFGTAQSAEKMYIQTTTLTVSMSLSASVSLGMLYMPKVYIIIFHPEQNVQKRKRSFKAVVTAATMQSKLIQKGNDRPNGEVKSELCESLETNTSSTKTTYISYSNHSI

| Compound | z-score |
| --- | --- |
| Clc1ccc(-n2ncc3c(N4CCCC4)ncnc32)cc1 | -0.394 |
| Cc1c(NC(=O)c2c(NC(=O)CNC3CC3)sc3c2CCCC3)c(=O)n(-c2ccccc2)n1C | -0.106 |
| CCOC(=O)c1cc(-c2ccccc2)n(CCC(=O)O)c1C | -0.15 |
| CCOC(=O)N1CCC(NC(=O)CCc2nc(-c3ccc(C)cc3)no2)CC1 | 0.526 |
| C=CCOc1c(CNc2ncn[nH]2)cccc1OCC | 0.764 |
| Cc1cc(O)c(C(C)C)cc1NC(=O)c1ccccc1Cl | -0.091 |
| CCC(=O)NCCn1c(C)cc2ccccc21 | 0.729 |
| CCOC(=O)c1c(C)[nH]c(C(=O)COC(=O)/C=C/c2cccc(OC)c2OC)c1C | -0.256 |
| O=C(CN1CCCCC1)Nc1cccc([N+](=O)[O-])c1 | 0.328 |
| Oc1ccccc1-c1cc(-c2ccco2)[nH]n1 | -0.734 |
| COc1ccc(C(=O)Nc2ccc(C)cc2C(=O)c2ccccc2)c(OC)c1 | 0.218 |
| O=C(NCCc1ccccn1)c1cc(C(=O)C2CCCCC2)c[nH]1 | 0.0693 |
| C(=N\n1cncn1)/c1ccc(N2CCOCC2)cc1 | -0.119 |
| C/C(CC(=O)Nc1ccccc1-c1ccccc1)=N\NC(=O)COc1ccc(C)cc1Br | 0.458 |
| CC(=O)Nc1ccc(C(=O)N(C)C(C(=O)Nc2ccccc2)c2ccccn2)cc1 (stereo not given) | 0.635 |
| Cc1ccc(C(=O)NC(C)CCc2ccccc2)cc1[N+](=O)[O-] (stereo not given) | -0.352 |
| Cc1oc(/C=N/NC(=O)CN(c2ccccc2Br)S(C)(=O)=O)cc1Br | -0.262 |
| Cc1c(C=NCCOCc2ccccc2)cnn1C | 0.0147 |
| COCCNC(=O)c1ccc(-n2c(SCc3cc(F)ccc3F)nc3ccccc3c2=O)cc1 | -0.0902 |
| CCOC(=O)/C=c1\s/c(=C(\C#N)C(=O)NC)n(-c2ccccc2)c1=O | -0.21 |
| COC(=O)Cn1cnc2c(nnn2-c2ccc(C)cc2)c1=O | 0.00874 |
| O=C(c1ccco1)N1CCN(S(=O)(=O)c2ccc3[nH]c(=O)oc3c2)CC1 | 0.249 |
| O=C(N/N=C/c1ccc(Cl)cc1Cl)C1CCN(c2ncc(C(F)(F)F)cc2Cl)CC1 | -0.1 |
| COc1ccccc1-c1cn(S(=O)(=O)c2ccc(F)cc2)nc1N | -0.214 |
| O=C(Cn1cc(/C=N/NC(=O)c2cccc(C(F)(F)F)c2)c2ccccc21)Nc1ccc(F)cc1 | 1.03 |
| Nn1c(SCC(=O)NC2CCCCC2)nnc1-c1ccc(Cl)cc1 | -0.266 |
| O=C(CCc1nc(-c2ccccc2F)no1)NCCN1CCOCC1 | -0.538 |
| COCCCn1cnc2oc3nc4ccccc4nc3c2c1=O | -0.531 |

| Compound | z-score |
| --- | --- |
| Cc1nnc2sc(-c3cccc(NC(=O)c4ccc(-c5cccc(Cl)c5)o4)c3)nn12 | -0.956 |
| CCn1c(SCC(=O)OC)nnc1C1CCCCC1 | -0.0306 |
| CN(C)c1ccc(NC(=O)Oc2ccccc2)cc1 | -0.0391 |
| COC(=O)c1ccc(CSc2nnc(NC(=O)c3cc4c(s3)CCCC4)s2)cc1 | 0.19 |
| CCCC(=O)Nc1cc(-c2nn(C)c(=O)c3ccccc23)ccc1N1CCCCC1 | -1.86 |
| Cc1cc(C)c(C(=O)CSc2nnc(-c3cccnc3)n2C)c(C)c1 | 0.116 |
| COc1ccc(Oc2ccccc2/C=N/O)cc1 | -1.04 |
| O=C1CC(=O)C(n2cncn2)C(c2ccc(Cl)cc2Cl)C1 (stereo not given) | -0.101 |
| Cc1sc(NC(=O)c2ccccc2)c(C(c2ccc(Cl)cc2)N2CCN(CCO)CC2)c1C (stereo not given) | -0.00152 |
| Cc1cc(C)cc(NCc2cc(=O)oc3cc(-c4ccccc4)c(O)cc23)c1 | -0.0758 |
| COc1ccc(C(=O)NC2(C(F)(F)F)C(=O)N(Cc3ccco3)C3=C2C(=O)CC(C)(C)C3)cc1OC (stereo not given) | -0.0742 |
| C=CCC(=O)OCC(=O)Nc1ccc(Cl)cn1 | -0.0749 |
| COc1ccccc1OCCn1c(CO)nc2ccccc21 | 0.573 |
| COc1ccc2c(=O)c3c(=O)n(Cc4ccco4)c(-c4ccccc4)nc3oc2c1 | -0.281 |
| CC(=O)Nc1ccc(Nc2ncc([N+](=O)[O-])c(Nc3ccc(NC(C)=O)cc3)n2)cc1 | -0.506 |
| Cc1ccc(N)c(C(O)(C(F)(F)F)C(F)(F)F)c1 | -0.164 |
| COc1cccc(C(=O)N/N=C(/CCC(=O)O)c2ccccc2)c1 | -0.189 |
| COCCNC(=O)CN(C(=O)CCC(=O)Nc1cc(C)on1)c1cccc(C)c1C | -0.171 |
| CCC(CC)NC(=O)c1ccc2c(c1)OCCO2 | 0.0376 |
| Cc1cccnc1NC(=O)Cn1nc(-c2ccccc2)oc1=S | -0.605 |
| O=C(CCNS(=O)(=O)c1cccs1)NCc1ccco1 | -1.18 |
| CCOC(=O)/C(C#N)=C/c1ccc(OC)c(OC)c1 | -0.112 |
| CCCNC(=O)N1CCN(S(=O)(=O)c2ccc(C)c(C)c2)CC1 | -0.316 |
| Cc1nc2ccc(-c3nc4cc(N)ccc4o3)cc2[nH]1 | 0.679 |
| Cc1csc(SCC(=O)Nc2cccc(S(=O)(=O)N3CCCC3)c2)n1 | 0.0422 |
| Fc1ccc(C(c2nnnn2C2CCCC2)N2CCc3ccccc32)cc1 (stereo not given) | -0.697 |
| Cc1c(Nc2cc(=O)oc3ccccc23)c(=O)n(-c2ccccc2)n1C | -0.281 |
